Experimental data published in the antibiotic and cytotoxicity screens of Wong et al. (2023).
The list shows a part of the results.

Experiments:
HSkMC = human skeletal muscle cells; assay: cytotoxicity call (relative viability < 0.9); settings: 10 µM
HepG2 = assay: cytotoxicity call (relative viability < 0.9); settings: 10 µM
S. aureus RN4220 = assay: growth inhibition call (relative growth <= 0.2); settings: 50 µM

Row | Compound | cytotoxicity call (HSkMC) | cytotoxicity call (HepG2) | growth inhibition call (S. aureus RN4220)
1 | C[C@H](CO)N1C[C@H](C)[C@H](CN(C)C(=O)c2ccc3c(c2)OCO3)Oc2cc(-c3cccnc3)ccc2S1(=O)=O | inactive | inactive | inactive
2 | COc1ccc(CCN2C(=O)[C@@]3(Cc4ccccc42)c2ccccc2C(=O)N(Cc2ccccc2)[C@H]3c2ccc(COC(=O)NCCCCCC(=O)NO)cc2)cc1 | inactive | inactive | inactive
3 | C[C@H]1CN([C@@H](C)CO)C(=O)CCCn2cc(nn2)CO[C@H]1CN(C)Cc1cccc2c1OCCCO2 | inactive | inactive | inactive
4 | C[C@H](CO)N1C[C@H](C)[C@H](CN(C)S(=O)(=O)c2cn(C)cn2)Oc2ccc(NC(=O)Cn3cnnn3)cc2CC1=O | inactive | inactive | inactive
5 | CS(=O)(=O)Nc1ccc2c(c1)[C@H]1C[C@H](CC(=O)NCc3ccc(-c4ccccc4)cc3)O[C@@H](CO)[C@H]1O2 | inactive | inactive | inactive
6 | C[C@H](CO)N1C[C@H](C)[C@@H](CN(C)C(=O)NC2CCCCC2)OCCCC[C@H](C)Oc2ccc(NC(=O)c3ccccc3)cc2C1=O | inactive | active | inactive
7 | C[C@H]1CN([C@@H](C)CO)C(=O)Cc2cc(NC(=O)CCC(F)(F)F)ccc2O[C@H]1CN(C)C(=O)Nc1ccc(C(F)(F)F)cc1 | inactive | inactive | inactive
8 | O[C@H]1[C@H](O)[C@@H](O)[C@H](O)[C@@H](O)[C@H]1O | inactive | inactive | inactive
9 | Cn1cncc1C#N | inactive | inactive | inactive
10 | C[C@@H]1CN([C@@H](C)CO)C(=O)c2c(c3ccccc3n2C)-c2ccccc2CO[C@@H]1CN(C)Cc1ccc(Cl)c(Cl)c1 | inactive | inactive | inactive
11 | C[C@@H]1CN([C@H](C)CO)C(=O)c2cc(NC(=O)Nc3ccccc3)ccc2O[C@@H](C)CCCCO[C@H]1CN(C)Cc1ccc(C(F)(F)F)cc1 | active | active | inactive
12 | Cc1ccc(S(=O)(=O)N(C)C[C@H]2Oc3ccc(NC(=O)Cn4cnnn4)cc3CC(=O)N([C@H](C)CO)C[C@@H]2C)cc1 | inactive | inactive | inactive
13 | CC(=O)OCC(=O)C1(O)C(C)CC2C3CCC4=CC(=O)C=CC4(C)C3(F)C(O)CC21C (centres undefined) | inactive | inactive | inactive
14 | O=C(C[C@@H]1CC[C@@H]2[C@H](COC[C@H](O)CN2S(=O)(=O)c2ccc(F)cc2)O1)N[C@@H]1CCN(Cc2ccccc2)C1 | inactive | inactive | inactive
15 | Cc1ccc(S(=O)(=O)Nc2cccc3c2O[C@@H](CN(C)S(=O)(=O)c2ccccc2)[C@@H](C)CN([C@H](C)CO)C3=O)cc1 | inactive | inactive | inactive
16 | CS(=O)(=O)N1CCn2cc(Cn3cncn3)nc2C1 | inactive | inactive | inactive
17 | COc1cccc(S(=O)(=O)N(C)C[C@@H]2Oc3ncc(-c4cccc(C(=O)N(C)C)c4)cc3C(=O)N([C@@H](C)CO)C[C@@H]2C)c1 | inactive | inactive | inactive
18 | COc1ccc(CN(C)C[C@H]2Oc3ccc(NS(C)(=O)=O)cc3C(=O)N([C@@H](C)CO)C[C@@H]2C)cc1 | inactive | inactive | inactive
19 | COc1ccc2c3c([nH]c2c1)[C@@H](CO)N(C[C@]13CCN(CC1)Cc1cc(ccc1F)F)C(=O)Nc1ccc(cc1)F | inactive | inactive | inactive
20 | CO[C@@H]1CN(C)C(=O)c2cc(NC(=O)Nc3cccc(F)c3)ccc2OC[C@H](C)N(C(=O)Nc2c(C)noc2C)C[C@H]1C | inactive | inactive | inactive
21 | CC(=O)O[C@H](C[C@H](O)[C@@](C)(CCC=C(C)C)O[C@H]1O[C@@H](CO)[C@@H](O)[C@@H](O)[C@@H]1O)/C(C)=C/COC[C@@H](O)[C@@H](O)[C@@H](O)[C@@H](O)CO | inactive | inactive | inactive
22 | CO[C@H]1CN(C)C(=O)c2cc(NC(=O)c3ccc(F)cc3)ccc2OC[C@@H](C)N(C(=O)CN(C)C)C[C@H]1C | inactive | inactive | inactive
23 | C[C@@H]1CN([C@H](C)CO)C(=O)CCCn2cc(nn2)CO[C@H]1CN(C)S(=O)(=O)c1ccc(C#N)cc1 | inactive | inactive | inactive
24 | C[C@@H]1CCCCO[C@H](CN(C)C(=O)Cc2ccccc2)[C@@H](C)CN([C@@H](C)CO)C(=O)c2cc(NS(=O)(=O)c3cccs3)ccc2O1 | inactive | inactive | inactive
25 | Cc1ccc(S(=O)(=O)Nc2cccc3c2O[C@H](CN(C)S(=O)(=O)c2cccs2)[C@@H](C)CN([C@H](C)CO)C3=O)cc1 | inactive | inactive | inactive
26 | O=S(=O)(NCC[C@@H]1CC[C@@H](NS(=O)(=O)c2ccccc2Cl)[C@@H](CO)O1)c1ccc(F)cc1 | inactive | inactive | inactive
27 | COc1cccc(C#Cc2ccc3c(c2)O[C@@H](CN(C)C(=O)c2ccccn2)[C@@H](C)CN([C@H](C)CO)S3(=O)=O)c1 | inactive | inactive | inactive
28 | COCC(=O)N(C)C[C@@H]1Oc2cc(C#C[C@@H](C)O)ccc2S(=O)(=O)N([C@H](C)CO)C[C@H]1C | inactive | inactive | inactive
